Results: PubChem BioAssay (EPA / NIEHS)
Not every entry of the source has a single result; some have several. This is not the full list of results. There may be further records. The calls were made as follows: active = hit-call score of the fitted dose curve at least 0.9, where 1 is the maximum; inactive = score below 0.9. The records of an entry repeat one measurement in other runs, samples, wells, individuals or studies. Brackets with × say how often a value occurs here. Some structures have more than one record in an assay (separate samples or runs), and their calls can disagree.

How the values were obtained:
[1] = read-out: Macrophage colony-stimulating factor (MCSF), CSF1 (gene 1435); assay: BSK_LPS_MCSF: BioMAP Diversity Plus: LPS Assay for Macrophage colony-stimulating factor (MCSF) Biomarker Activity (AID 2283083); settings: actives raise or lower the signal; primary human HUVEC with PBMC
Summary of the method: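 Bidirectional fitting against DMSO was applied to M-CSF levels read by ELISA at 24 h post-dose. The system pairs human umbilical vein endothelium with peripheral blood mononuclear cells; parallel SRB staining tracked cytotoxicity.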

[2] = read-out: Tissue Factor, F3 (gene 2152); assay: BSK_LPS_TissueFactor: BioMAP Diversity Plus: LPS Assay for Tissue Factor Biomarker Activity (AID 2283084); settings: actives raise or lower the signal; primary human HUVEC with PBMC
Summary of the method: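 Compound was added to an endothelial cell/PBMC co-culture, and after 24 h tissue factor (CD142) was read by ELISA. Gain or loss of signal was fitted against a DMSO baseline, and parallel SRB staining (560 nm) tracked overt cytotoxicity.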

[3] = read-out: Vascular cell adhesion molecule 1 (VCAM1), VCAM1 (gene 7412); assay: BSK_LPS_VCAM1: BioMAP Diversity Plus: LPS Assay for Vascular cell adhesion molecule 1 (VCAM1) Biomarker Activity (AID 2283086); settings: actives raise or lower the signal; primary human HUVEC with PBMC
Summary of the method: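 Human umbilical vein endothelial cells co-cultured with PBMC and stimulated with LPS; VCAM-1 measured by ELISA 24 h after dosing. Bidirectional curve fitting against DMSO baseline; cytotoxicity tracked in parallel by SRB total-protein staining.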

[4] = read-out: CD38, CD38 (gene 952); assay: BSK_SAg_CD38: BioMAP Diversity Plus: SAg Assay for CD38 Biomarker Activity (AID 2283087); settings: actives raise or lower the signal; primary human HUVEC with PBMC
Summary of the method: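 Human HUVEC plus PBMC co-culture stimulated with superantigen; CD38 measured by ELISA 24 h after chemical dosing. Fluorescence read-out, bidirectional fit against DMSO; cytotoxicity tracked in parallel by SRB and Alamar Blue.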

[5] = read-out: CD40, CD40 (gene 958); assay: BSK_SAg_CD40: BioMAP Diversity Plus: SAg Assay for CD40 Biomarker Activity (AID 2283088); settings: actives raise or lower the signal; primary human HUVEC with PBMC
Summary of the method: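 CD40 is measured by fluorescence ELISA in an endothelial/PBMC primary human co-culture at 24 h post-dose. Fitting is bidirectional, DMSO baseline. Parallel SRB staining (560 nm) flags cytotoxicity.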

[6] = read-out: CD69, CD69 (gene 969); assay: BSK_SAg_CD69: BioMAP Diversity Plus: SAg Assay for CD69 Biomarker Activity (AID 2283089); settings: actives raise or lower the signal; primary human HUVEC with PBMC;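 also: cell surface CD69 protein quantified by ELISA with fluorescence detection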
Summary of the method: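 ELISA, fluorescence read-out: CD69 on human umbilical vein endothelial cell + PBMC co-culture, 24 h post-dosing. Gain or loss of signal fitted bidirectionally against DMSO baseline.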

[7] = read-out: Monocyte Chemoattractant Protein-1 (MCP1), CCL2 (gene 6347); assay: BSK_SAg_MCP1: BioMAP Diversity Plus: SAg Assay for Monocyte Chemoattractant Protein-1 (MCP1) Biomarker Activity (AID 2283090); settings: actives raise or lower the signal; primary human HUVEC with PBMC
Summary of the method: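 MCP-1 levels in the endothelial–PBMC SAg co-culture were quantified by ELISA at 24 h post-dosing; both increases and decreases versus DMSO scored. Cytotoxicity monitored by SRB total protein in parallel cultures.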

[8] = read-out: E-selectin (Homo sapiens) (UniProt P16581); assay: BSK_SAg_Eselectin: BioMAP Diversity Plus: SAg Assay for Eselectin Biomarker Activity (AID 2283091); settings: actives raise or lower the signal; primary human HUVEC with PBMC
UniProt P16581, sequence (P16581 whole entry, looked up): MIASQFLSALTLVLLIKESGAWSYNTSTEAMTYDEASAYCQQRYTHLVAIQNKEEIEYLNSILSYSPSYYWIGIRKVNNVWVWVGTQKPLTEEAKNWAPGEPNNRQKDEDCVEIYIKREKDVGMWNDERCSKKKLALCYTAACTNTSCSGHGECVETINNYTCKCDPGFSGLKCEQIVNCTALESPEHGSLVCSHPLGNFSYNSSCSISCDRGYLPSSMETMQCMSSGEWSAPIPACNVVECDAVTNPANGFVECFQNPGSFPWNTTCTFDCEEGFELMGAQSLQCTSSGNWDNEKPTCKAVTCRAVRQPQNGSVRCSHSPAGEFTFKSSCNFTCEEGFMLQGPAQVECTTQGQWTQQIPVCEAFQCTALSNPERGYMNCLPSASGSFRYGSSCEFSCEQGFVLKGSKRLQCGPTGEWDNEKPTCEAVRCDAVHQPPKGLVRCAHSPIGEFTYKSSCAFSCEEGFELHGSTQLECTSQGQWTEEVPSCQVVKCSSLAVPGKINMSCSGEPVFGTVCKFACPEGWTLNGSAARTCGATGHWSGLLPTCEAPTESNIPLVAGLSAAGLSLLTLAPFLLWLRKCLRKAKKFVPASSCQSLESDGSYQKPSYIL
Summary of the method: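 Cell-surface E-selectin is read by ELISA at 24 h in the SAg co-culture of HUVEC and PBMC. Curves are fitted in both directions relative to DMSO. Parallel SRB total-protein staining tracks overt toxicity.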

[9] = BSK_SAg_PBMCCytotoxicity: PBMC Cytotoxicity Assessment in the BioMAP Diversity Plus: SAg Assay (AID 2283093); settings: primary human HUVEC with PBMC;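 also: PBMC superantigen activated with SEB plus TSST-1 one hour after compound addition; PBMC viability measured as Alamar Blue reduction fluorescence at 546/580 nm; fitted both ways against DMSO so a hit may be loss or gain of signal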
Summary of the method: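 HUVEC/PBMC co-culture; PBMC exposed to chemical 1 h before SEB and TSST-1 activation (20 ng/mL each), incubated 90 h, then Alamar Blue 6 h, fluorescence 546/580 nm. Bidirectional fit versus DMSO baseline.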

[10] = BSK_SAg_Proliferation: Cell Proliferation Assessment in the BioMAP Diversity Plus: SAg Assay (AID 2283095); settings: primary human HUVEC with PBMC
Summary of the method: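 Human umbilical vein endothelial cells co-cultured with PBMC; sulforhodamine B total-protein staining (0.1% SRB after 10% TCA fixation, absorbance 560 nm) at 96 h in sub-confluent culture. Fitted bidirectionally against DMSO.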

[11] = read-out: Secreted IgG (sIgG), gene 3500; assay: BSK_BT_sIgG: BioMAP Diversity Plus: BT Assay for Secreted IgG (sIgG) Biomarker Activity (AID 2284226); settings: primary human B cells with PBMC
Summary of the method: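 Human B cell plus PBMC co-culture; secreted IgG measured by ELISA 24 h after chemical dosing. Response fitted in positive direction relative to DMSO baseline.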

[12] = read-out: Interleukin 6 (IL6), IL6 (gene 3569); assay: BSK_BT_xIL6: BioMAP Diversity Plus: BT Assay for Interleukin 6 (IL6) Biomarker Activity (AID 2284228); settings: primary human B cells with PBMC
Summary of the method: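 Secreted IL-6 in the primary human B cell plus PBMC system, measured by Luminex at 24 h post-chemical, DMSO as baseline. Alamar Blue viability: 75,000 cells/well, chemical 1 h before SEB/TSST-1 (20 ng/mL each), 90 h, then 6 h dye.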

[13] = read-out: Interleukin 17A (IL17A), IL17A (gene 3605); assay: BSK_BT_xIL17A: BioMAP Diversity Plus: BT Assay for Interleukin 17A (IL17A) Biomarker Activity (AID 2284229); settings: primary human B cells with PBMC
Summary of the method: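 Luminex xMAP quantification of secreted IL-17A after 24 h chemical exposure of a primary human B cell/PBMC co-culture. Signal increases fitted relative to DMSO negative control.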

[14] = read-out: Interleukin 17F (IL17F), IL17F (gene 112744); assay: BSK_BT_xIL17F: BioMAP Diversity Plus: BT Assay for Interleukin 17F (IL17F) Biomarker Activity (AID 2284243); settings: primary human B cells with PBMC
Summary of the method: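 Human B cells co-cultured with PBMC; secreted IL-17F quantified by LumineX xMAP 24 hours after chemical dosing. Activity fitted in the positive direction against DMSO negative control as baseline.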

[15] = read-out: Actin alpha 1 (ACTA1), ACTA1 (gene 58); assay: BSK_MyoF_ACTA1: BioMAP Diversity Plus: MyoF Assay for Actin alpha 1 (ACTA1) Biomarker Activity (AID 2284244); settings: primary human lung fibroblasts
Summary of the method: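 Human lung fibroblast (MyoF system) cultures dosed with test chemical; alpha-SMA measured by ELISA 24 h after dosing, normalized to DMSO control. Cytotoxicity tracked in parallel cultures by SRB total-protein staining.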

[16] = read-out: Interleukin 2 (IL2), IL2 (gene 3558); assay: BSK_BT_xIL2: BioMAP Diversity Plus: BT Assay for Interleukin 2 (IL2) Biomarker Activity (AID 2284245); settings: primary human B cells with PBMC
Summary of the method: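 Human B cell plus PBMC co-culture, 24 h after chemical dosing; secreted IL-2 quantified by Luminex xMAP multiplex, fitted for signal gain against DMSO baseline.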

[17] = read-out: Macrophage Inflammatory Protein-1 Alpha (MIP1a), CCL3 (gene 6348); assay: BSK_IMphg_MIP1a: BioMAP Diversity Plus: IMphg Assay for Macrophage Inflammatory Protein-1 Alpha (MIP1a) Biomarker Activity (AID 2284255); settings: primary human endothelial cells with macrophages
Summary of the method: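 Co-culture of human venular endothelial cells and macrophages exposed to compounds for 24 h; MIP-1a measured by ELISA relative to DMSO. Cytotoxicity assessed in parallel cultures by sulforhodamine B total-protein staining at 560 nm.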

[18] = read-out: Intercellular Adhesion Molecule 1 (ICAM1), ICAM1 (gene 3383); assay: BSK_BF4T_ICAM1: BioMAP Diversity Plus: BF4T Assay for Intercellular Adhesion Molecule 1 (ICAM1) Biomarker Activity (AID 2284260); settings: primary human bronchial epithelial cells with fibroblasts
Summary of the method: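 Co-culture of human bronchial epithelial cells and dermal fibroblasts exposed 24 h to chemical; cell-surface ICAM-1 quantified by ELISA. Parallel SRB total-protein staining assessed cytotoxicity; activity fitted relative to DMSO.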

[19] = read-out: KRT18 (gene 3875); assay: BSK_BF4T_Keratin818: BioMAP Diversity Plus: BF4T Assay for Keratin 818 Biomarker Activity (AID 2284266); settings: primary human bronchial epithelial cells with fibroblasts
Summary of the method: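 Co-culture of human bronchial epithelial cells and dermal fibroblasts, chemical exposure 24 h. Keratin 8/18 measured by ELISA; positive-direction fit vs DMSO. SRB total protein run in parallel cultures for cytotoxicity.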

[20] = read-out: Epidermal growth factor receptor (EGFR), EGFR (gene 1956); assay: BSK_BE3C_EGFR: BioMAP Diversity Plus: BE3C Assay for Epidermal growth factor receptor (EGFR) Biomarker Activity (AID 2284281); settings: primary human bronchial epithelial cells
Summary of the method: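 Human primary bronchial epithelial cells (BE3C system) dosed with chemicals; EGFR measured by ELISA at 24 h, fitted in the positive direction relative to DMSO. Cytotoxicity tracked in parallel cultures by SRB total-protein staining.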

[21] = read-out: KRT18 (gene 3875); assay: BSK_BE3C_Keratin818: BioMAP Diversity Plus: BE3C Assay for Keratin 818 Biomarker Activity (AID 2284282); settings: primary human bronchial epithelial cells
Summary of the method: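 Primary human bronchial epithelial cells treated 24 h; Keratin 8/18 quantified by ELISA, fit relative to DMSO. Cytotoxicity tracked in parallel cultures by sulforhodamine B total-protein staining.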

[22] = read-out: Matrix Metallopeptidase 9 (MMP9), MMP9 (gene 4318); assay: BSK_BE3C_MMP9: BioMAP Diversity Plus: BE3C Assay for Matrix Metallopeptidase 9 (MMP9) Biomarker Activity (AID 2284283); settings: primary human bronchial epithelial cells
Summary of the method: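 MMP9 is measured by ELISA after a 24 h compound exposure of primary human bronchial epithelial cultures. Parallel SRB staining gives overt cytotoxicity. Values fitted in the positive direction against DMSO.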

[23] = read-out: Plasminogen activator inhibitor-1 (PAI1), SERPINE1 (gene 5054); assay: BSK_CASM3C_PAI1: BioMAP Diversity Plus: CASM3C Assay for Plasminogen activator inhibitor-1 (PAI1) Biomarker Activity (AID 2284284); settings: primary human coronary artery smooth muscle cells;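 also: PAI-1 protein level measured by ELISA 24 h after dosing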
[24] = read-out: CD40, CD40 (gene 958); assay: BSK_IMphg_CD40: BioMAP Diversity Plus: IMphg Assay for CD40 Biomarker Activity (AID 2284288); settings: primary human endothelial cells with macrophages
Summary of the method: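 Venular endothelial cells co-cultured with macrophages (human primary), CD40 measured by ELISA 24 h after dosing. Positive-direction fit vs DMSO baseline; cytotoxicity tracked by SRB total-protein staining in parallel cultures.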

With `FC(F)(I)C(F)(F)C(F)(F)C(F)(F)C(F)(F)C(F)(F)I` the AC50 [1] was “active: 10.9, 18, 14.6, 45.6, 58.7 µM [separate samples]”, the AC50 [2] was “active: 14.7, 18.8, 44.8 (2×), 38.3 µM [separate samples]” and the AC50 [3] was “active: 16.3, 23.3, 18.4, 49.7, 47.1 µM [separate samples]”. For the same molecule, the AC50 [4] was “active: 9.8, 17.6, 10.9, 54.6, 53.1 µM [separate samples]”, the AC50 [5] was “active: 15.8, 11.6, 9.61, 55, 49.7 µM [separate samples]” and the AC50 [6] was “active: 14, 19.8, 9.28, 49.2, 49.7 µM [separate samples]”. For the same molecule, the AC50 [7] was “active: 16.1, 18.7, 16.3, 48.9, 49.6 µM [separate samples]”, the AC50 [8] was “active: 9.78, 14.2, 17.7, 51, 52.1 µM [separate samples]” and the AC50 [9] was “active: 15.6, 11.4, 16.1, 42.9, 42.3 µM [separate samples]”. For the same molecule, the AC50 [10] was “active: 10.3, 9.84, 10.7, 37.8, 23.3 µM [separate samples]”, the AC50 [11] was “active: 14.6, 14.2, 14.7, 24.3, 44.6 µM [separate samples]” and the AC50 [12] was “active: 16.4, 16, 17.5, 45.9, 49.1 µM [separate samples]”. For the same molecule, the AC50 [13] was “active: 13.1, 11.7, 16.1, 44.5, 36.3 µM [separate samples]”, the AC50 [14] was “active: 13.9, 8.41, 10.2, 21.8, 33.6 µM [separate samples]” and the AC50 [15] was “active: 2.21 µM, 885 nM, 2.02 µM, 3.65 µM, 2.66 µM [separate samples]”. The AC50 [16] was “active: 12.9, 16 (2×), 40.7, 48.3 µM [separate samples]”, the AC50 [17] was “active: 47.3 (2×), 54.9, 50.3, 15.5 µM [separate samples]” and the AC50 [18] was “active: 10.5, 7.91, 7.38, 19.9, 24.7 µM [separate samples]”. For the same molecule, the AC50 [19] was “active: 8.26, 8.16, 8.14, 45.7, 44.3 µM [separate samples]”, the AC50 [20] was “active: 7.62, 8.26, 8.03, 34, 30 µM [separate samples]” and the AC50 [21] was “active: 8.51, 16, 14.1, 42.5, 30 µM [separate samples]”. The AC50 [22] was “active: 9.05, 14.3, 9.97, 39.5, 30 µM [separate samples]”, the AC50 [23] was “active: 19.1, 20.6, 10.2, 24.8, 41.6 µM [separate samples]” and the AC50 [24] was “active: 28.8, 44.3, 9.53, 28.2 µM [separate samples]”.
